# Experimental data published in PubChem BioAssay AID1508642 (National Center for Advancing Translational Sciences (NCATS), 2021).
# About 200 (0.47%) of roughly 43,000 compounds were called active. Another 12% or so got no clear call; they are omitted. Calls follow the shape of the dose curve; as a rule, active = well fitted cell-killing curve with a large enough effect; inconclusive = small, poorly fitted or top-dose-only effect, or effect the other way; inactive = flat fitted curve, though single readings scatter. This is one part of the list.
# Assay: Cell viability qHTS assay in S16 Pmp22-F2sN cells; also: nearly all actives have a fitted effect of over 65% in size
# Conditions: S16 Pmp22-F2sN Schwann cells (luciferase reporters placed in the Pmp22 gene) viability, CellTiter-Glo, 24 h; series mostly up to 57.5 µM; activity change, negative = cytotoxicity: at the top concentration
# How it was run: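 S16 Schwann cells carrying the Pmp22-F2sN reporter, seeded in 1536-well format, were exposed to library compounds for 24 h at 37C. Viability was read as CellTiter-Glo luminescence after 15 min at room temperature.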
# % is scaled to controls: 0 for no effect and ±100 for the full control effect.
row,Structure (SMILES),"activity change, negative = cytotoxicity"
1,COC(=O)c1ccc(NC(=O)C2CCN(S(=O)(=O)c3ccc4c(c3)CCCN4C(C)=O)CC2)cc1,inactive: -4.88%
2,CCc1nnc2n1N(C(C)=O)C(c1ccc(C(C)(C)C)cc1)=C(C(C)=O)S2,inactive: -20.9%
3,Cc1nc(N2CCCC2)ncc1C(=O)NCc1ccccc1Cl,inactive: -0.684%
4,CCc1ccc(CNC(=O)c2cc3c(s2)-c2ccccc2OC3)cc1,inactive: 13.3%
5,COc1cc(NC(=O)CSc2nc3nc(C)c(Cc4ccccc4)c(C)n3n2)cc(OC)c1OC,inactive: -0.0267%
6,O=C(Cn1ncc2c3ccccc3n(Cc3ccc(Cl)cc3)c2c1=O)NC1CCCCCC1,inactive: 3.48%
7,CCc1ccc(CNC(=O)c2cnc3sc(N(CC)CC)nn3c2=O)cc1,inactive: -8.75%
8,COCCCNC(=O)Cn1c(=O)n(-c2ccc(Cl)cc2)c(=O)c2c3c(sc21)CCCCC3,inactive: 2.81%
9,COc1ccc(CCNC(=O)CN2C(=O)COc3ccc(S(=O)(=O)N4CCCCCC4)cc32)cc1OC,inactive: 2.54%
10,CCOC(=O)C1CCCN(S(=O)(=O)c2ccc3c(c2)N(C)C(=O)CC(=O)N3C)C1 (stereo unspecified),inactive: 2.47%
11,CC(C)c1cnc2c(c1SCC(=O)Nc1cccc([N+](=O)[O-])c1)c(=O)n(C)c(=O)n2C,inactive: 3.9%
12,COCCCNc1ncnc2c1nnn2C,inactive: -10.6%
13,CCn1c(SCC(=O)Nc2ccc(C)c(C)c2)nnc1-c1nonc1NC(C)=O,inactive: -0.215%
14,CCCCC(CC)Cn1c(Oc2ccccc2)nc2c1c(=O)n(C)c(=O)n2C (stereo unspecified),inactive: 3.46%
15,Cc1ccc(Cl)cc1N1CCN(S(=O)(=O)c2ccc3c(c2)CC(=O)N3C)CC1,inactive: -1.1%
16,CCOc1ccc(-n2c(=O)c3sc4ccccc4c3n(Cc3ccc(F)cc3)c2=O)cc1,inactive: -3.66%
17,Cc1ccc(NC(=O)c2ccc(CN3CC(=O)N4CCCCC4C3=O)cc2)cc1C (stereo unspecified),inactive: -6.51%
18,CCc1ccccc1NC(=O)C(=O)NCCc1sc(-c2cccc(C)c2)nc1C,inactive: 1.29%
19,COc1ccc(OC)c(-n2cnc3cc(C(=O)NCCc4ccccc4)ccc32)c1,inactive: 4.73%
20,CCOc1ccccc1N(CC)C(=O)c1cc2c(=O)n(CC)c3ccccc3c2s1,inactive: 10.7%
21,CC1=C(C(=O)Nc2ccc(C)cc2C)C(c2ccc[nH]2)n2ncnc2N1 (stereo unspecified),inactive: 0.769%
22,CSc1nnc2c(n1)OC(c1cccc(O)c1Cl)Nc1ccccc1-2 (stereo unspecified),inactive: -1.23%
23,N#Cc1cc2c(=O)n3ccccc3nc2n(-c2nnc(SCc3ccccc3F)s2)c1=O,inactive: 21.3%
24,Cc1ccc(OCC(=O)Nc2ccccc2C(=O)OCc2cc(=O)n3c(C)csc3n2)cc1,inactive: -8.98%

row,Structure (SMILES),"activity change, negative = cytotoxicity"
1,CC(C)OC(=O)c1c(NC(=O)c2cc3nc(-c4ccccc4)cc(C(F)(F)F)n3n2)sc2c1CCCC2,inactive: -2.03%
2,Cc1ccc(-c2nnc3ccccc3c2C(=O)Nc2cccc(C(F)(F)F)c2)cc1,inactive: 6.67%
3,Cc1cc(C)cc(NS(=O)(=O)c2ccc3[nH]cc(C(=O)NCc4ccco4)c(=O)c3c2)c1,inactive: -24.4%
4,O=C(/C=C/c1ccccc1)Nc1nc(-c2cccs2)ns1,inactive: -11.6%
5,CC(=O)c1ccc(NC(=O)CN2C(=O)CCc3cc(S(=O)(=O)N4CCC(C)CC4)ccc32)cc1,inactive: 16%
6,COc1cccc(NC(=O)CCc2nnc3n(CC(C)C)c(=O)c4ccccc4n23)c1,inactive: 24.6%
7,N#C/C(=C\c1ccccc1F)c1nc2ccccc2c(=O)[nH]1,inactive: -2.64%
8,CCC(O)c1nc2ccccc2n1CCOc1cc(C)cc(C)c1 (stereo unspecified),inactive: -27.9%
9,O=C(Nc1ccccc1F)c1oc2ccccc2c1NC(=O)C12CC3CC(CC(C3)C1)C2,inactive: 13.6%
10,O=C(Nc1ccc(Cl)c(C(F)(F)F)c1)c1cc2nc(-c3ccc4c(c3)OCO4)cc(C(F)(F)F)n2n1,inactive: 16.9%
11,COc1cc(NC(=O)C2CCN(c3nnc(C)c4c(C)n(-c5ccccc5)nc34)CC2)cc(OC)c1,inactive: -10.4%
12,CCN(C(=O)CSc1nc2ccccc2n1Cc1ccccc1C#N)c1ccccc1,inactive: 3.1%
13,Cc1ccc(-c2nc(S(=O)(=O)c3ccc(C)cc3)c(SCC(=O)c3ccccc3)o2)cc1,inactive: -14%
14,Cc1cccc(C)c1NC(=O)Cn1c(=O)n(Cc2ccccc2Cl)c(=O)c2cccnc21,inactive: 7.53%
15,COc1ccc(-n2nc(C(=O)Nc3ccc(C)cn3)c3c4ccccc4n(C)c3c2=O)cc1Cl,inactive: 22.4%
16,CCOC(=O)c1ccc(NC(=O)CSc2nnc(-c3ccncc3)n2-c2ccccc2)cc1,inactive: 6.53%
17,CCOc1ccc(CNC(=O)c2cnc3c(C)cccn3c2=O)cc1,inactive: -0.594%
18,CCOC(=O)c1ccccc1NC(=O)c1cnn(-c2ccc(OC)cc2)c1C1CCN(C(=O)OC(C)(C)C)CC1,inactive: 14.4%
19,Cc1ccc2c(c1)c(=O)c1ccccc1n2CCCC(=O)Nc1ccc(Cl)cc1C,inactive: 20.4%
20,O=C(NCc1nc2ccccc2n1Cc1ccccc1Cl)c1ccccc1,inactive: -0.788%
21,Cc1ccc(NC(=O)CCCn2c(=O)c3cccn3c3ccccc32)cc1Cl,inactive: 9.36%
22,COc1ccc(-c2nn(-c3ccc(F)cc3)c3c2cnc2ccc(F)cc23)cc1OC,inactive: -11.3%
23,O=C1CN(C(=O)COc2ccccc2)C(c2ccc(F)cc2)c2cc(Br)ccc2N1 (stereo unspecified),inactive: -28.7%
24,COC(=O)c1cc2sc(Cl)cc2n1CC(=O)Nc1cc(OC)cc(OC)c1,inactive: -4.04%

row,Structure (SMILES),"activity change, negative = cytotoxicity"
1,COc1ccc(OCC(=O)Nc2ccc(Cl)c(-c3nc4ncccc4o3)c2)cc1,inactive: 3.78%
2,CCN(CCCNC(=O)c1cc(Nc2ccc(OC)cc2)nc2ccccc12)c1cccc(C)c1,inactive: 9.4%
3,COc1cccc(CNC(=O)c2ccc3c(c2)N(Cc2ccc(F)cc2Cl)C(=O)c2ccccc2S3)c1,inactive: 1.52%
4,Cc1ccccc1CN1C(=O)c2ccccc2Sc2ccc(C(=O)NCc3ccccc3)cc21,inactive: -0.347%
5,Cc1ccc(Cl)cc1NC(=O)Nc1cn(CC(C)C)c(=O)c2ccccc12,inactive: -4.87%
6,O=C(Nc1ccccc1F)c1nc(SCc2ccccc2F)ncc1Cl,inactive: -1.58%
7,CCOc1ccc(CCNC(=O)Cn2ccc3cc(S(=O)(=O)N4CCCCC4)ccc32)cc1,inactive: -22.3%
8,CN(Cc1ccccc1)c1ccc(-c2nc(-c3ccccc3)no2)cc1[N+](=O)[O-],inactive: 7.24%
9,C=Cc1ccc(Cn2c(C)c(CNCc3ccc(SC)cc3)c(C(=O)O)c2C)cc1,inactive: 8.54%
10,CCc1cccc(NC(=O)c2cc3c(s2)-c2ccccc2OC3)c1,inactive: 17.7%
11,Cc1cc(C)c(NC(=O)C(=O)NCC(c2cccnc2)N2CCN(c3ccccc3F)CC2)c(C)c1 (stereo unspecified),inactive: -10.6%
12,O=C(CN1C(=O)c2cccc3cccc1c23)Nc1cccc(F)c1,inactive: 19%
13,CC(=O)Nc1cccc(NC(=O)CSc2nccn2C2CCCC2)c1,inactive: -15.7%
14,CCC(Sc1ncc(S(=O)(=O)c2ccc(Cl)cc2)c(=O)[nH]1)C(=O)Nc1ccc(OC)cc1 (stereo unspecified),inactive: -9.76%
15,Cc1ccc2[nH]c(=O)c3cc(C(=O)N(CCCOC(C)C)Cc4ccco4)sc3c2c1,inactive: -21.9%
16,COc1ccc(Cl)cc1NC(=O)CSc1nnc2[nH]c(=O)cc(-c3ccccc3)n12,inactive: 1.98%
17,COC(=O)c1ccc2c(=O)n3nc(Nc4cc(OC)ccc4OC)sc3nc2c1,inactive: 0.371%
18,Cc1ccccc1NC(=O)CSC1=Nc2ccccc2C2=NC(Cc3ccccc3)C(=O)N12 (stereo unspecified),inactive: -22.2%
19,Cc1ccc(OCc2nc(C#N)c(NCCc3ccccc3)o2)cc1,inactive: 2%
20,COc1ccc(NC(=O)C2CCN(C(=O)c3sc4nc[nH]c(=O)c4c3C)CC2)cc1Cl,inactive: 3.37%
21,CN(CC(=O)Nc1ccc(Br)cc1)S(=O)(=O)c1cccc2nsnc12,inactive: -0.134%
22,CCOC(=O)C1CCN(c2nc3ccccc3nc2Cl)CC1,inactive: 0.468%
23,COc1ccccc1NC(=O)CSc1nc2c(oc3ccccc32)c(=O)n1-c1ccccc1F,inactive: 5.01%
24,CN1C(=O)Cc2cc(S(=O)(=O)CCC(=O)N3CCN(c4ccc(Cl)cc4)CC3)ccc21,inactive: 3.64%

row,Structure (SMILES),"activity change, negative = cytotoxicity"
1,Cc1cc2oc(C(=O)N(Cc3ccc(N(C)C)cc3)CC3CCCO3)c(C)c2cc1Cl (stereo unspecified),inactive: -3.4%
2,Cc1ccc(Cl)cc1-n1ncc2c(N3CCC(C(N)=O)CC3)ncnc21,inactive: 2.94%
3,O=C(CCn1c(=O)c2cccn2c2cccnc21)N1CCN(c2ccc(Cl)cc2)CC1,inactive: 11.2%
4,CNc1oc(/C=C/c2cc(OC)c(OC)c(OC)c2)nc1C#N,inactive: -6.79%
5,Cc1ccc(S(=O)(=O)N2CCCc3cc(NC(=O)c4c(F)cccc4F)ccc32)cc1,inactive: -26.8%
6,Cc1nn(CC(=O)NCc2ccccc2Br)c(=O)c2cc3occc3n12,inactive: 4.59%
7,CCCCNC(=O)[C@@H](c1ccccc1)N1Cc2ccccc2C1=O,inactive: 2.37%
8,CCc1ccc(C2=C(C)C(N3CCC(C(=O)NCc4ccc(C)o4)CC3)=NS2(=O)=O)cc1,inactive: 1.42%
9,Cc1ccccc1C(=O)Nc1ccc(C(=O)OCc2cc(=O)n3c4c(sc3n2)CCCC4)cc1,inactive: -11.5%
10,Cc1ccc(-n2c(=O)c3ccc(C(=O)NCc4ccccc4Cl)cc3n(CC(N)=O)c2=O)cc1,inactive: 1.83%
11,Cc1ccc(C(=O)Nc2ccc(F)cc2)cc1S(=O)(=O)N1CCOCC1,inactive: -20%
12,CCOc1ccccc1NC(=O)CSc1nccn1Cc1ccc(F)cc1,inactive: 9.24%
13,O=C(OCC1CCCO1)c1ccc2c(c1)N(Cc1ccccc1F)C(=O)c1ccccc1S2(=O)=O (stereo unspecified),inactive: 19.3%
14,O=C(CCCn1c(=O)c2cccn2c2cccnc21)Nc1ccccc1Br,inactive: 19.6%
15,O=c1oc2ccc3ccccc3c2cc1-c1nnc(Nc2cccc(F)c2)s1,inactive: -1.98%
16,Cc1cccc(C)c1Nc1c(-c2ccccc2O)nc2ncccn12,inactive: -10.5%
17,Cc1ccccc1CNC(=O)c1ccc2c(c1)N(Cc1ccccc1)CCS2,inactive: -2.66%
18,CCCCn1c(=O)c2oc3ccccc3c2n(CC(=O)Nc2ccccc2OC)c1=O,inactive: 26.6%
19,CCOC(=O)c1c(NC(=O)/C=C/c2ccc(OCC)cc2)sc2c1CCC2,inactive: 1.54%
20,Cc1ccc(CNC(=O)Cn2cc(C(=O)c3ccc(Cl)cc3)c(=O)c3ccc(C)nc32)cc1,inactive: -20.3%
21,Cc1ccc(NC(CNS(=O)(=O)c2ccc(Cl)cc2)c2ccccc2)cc1 (stereo unspecified),inactive: -16.1%
22,Cc1ccc(CNC(=O)C2CCN(c3ncnc4c3nc3n4CCCCC3)CC2)cc1,inactive: -0.984%
23,CCOC(=O)C1CCCN(S(=O)(=O)c2cc(-c3cc(C)no3)ccc2C)C1 (stereo unspecified),inactive: -1.56%
24,CCC(=O)N1c2ccc(S(=O)(=O)N3CCN(c4ccccc4Cl)CC3)cc2CC1C (stereo unspecified),inactive: -0.405%
